# PubChem BioAssay AID504333 (National Center for Advancing Translational Sciences (NCATS), 2011)
# “And” between values parts separate entries of the source, which are not always exact repeats. Equal values may be shown once. Screen size: about 360,000 compounds; about 16,000 (4.4%) were called active. The shares of active, inactive and inconclusive entries below differ from those in the screen. Calls follow the shape of the dose curve; as a rule, active = well fitted inhibition curve with a large enough effect; inconclusive = small, poorly fitted or top-dose-only effect; inactive = no such curve, though single readings can be large or run the other way. A potency beside an inconclusive call is a rough fit, not a confirmed value.
# Target: Bromodomain adjacent to zinc finger domain protein 2B (Homo sapiens) (UniProt Q9UIF8)
# Assay: qHTS Assay for Inhibitors of BAZ2B; also: nearly all actives have a fitted effect of over 60% in size
# Details: AlphaScreen BAZ2B-H3K14Ac peptide displacement; series mostly up to 114 µM
# Outline: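 BAZ2B (50 nM) with biotin-H3(5-23)K14Ac peptide (50 nM) in PBS pH 7.4, 0.01% Tween-20, preformed 30 min, then compound 30 min at room temperature; top concentration 110uM. AlphaScreen streptavidin donor/nickel chelate acceptor beads (10 ug/mL final), 20 min dark, signal read.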
# Potency is read from the fitted curve at half-maximal effect; tags tell the direction and shape of the fitted curve.
# Chain of UniProt Q9UIF8 (Q9UIF8 whole entry, looked up, the tested form may be a part): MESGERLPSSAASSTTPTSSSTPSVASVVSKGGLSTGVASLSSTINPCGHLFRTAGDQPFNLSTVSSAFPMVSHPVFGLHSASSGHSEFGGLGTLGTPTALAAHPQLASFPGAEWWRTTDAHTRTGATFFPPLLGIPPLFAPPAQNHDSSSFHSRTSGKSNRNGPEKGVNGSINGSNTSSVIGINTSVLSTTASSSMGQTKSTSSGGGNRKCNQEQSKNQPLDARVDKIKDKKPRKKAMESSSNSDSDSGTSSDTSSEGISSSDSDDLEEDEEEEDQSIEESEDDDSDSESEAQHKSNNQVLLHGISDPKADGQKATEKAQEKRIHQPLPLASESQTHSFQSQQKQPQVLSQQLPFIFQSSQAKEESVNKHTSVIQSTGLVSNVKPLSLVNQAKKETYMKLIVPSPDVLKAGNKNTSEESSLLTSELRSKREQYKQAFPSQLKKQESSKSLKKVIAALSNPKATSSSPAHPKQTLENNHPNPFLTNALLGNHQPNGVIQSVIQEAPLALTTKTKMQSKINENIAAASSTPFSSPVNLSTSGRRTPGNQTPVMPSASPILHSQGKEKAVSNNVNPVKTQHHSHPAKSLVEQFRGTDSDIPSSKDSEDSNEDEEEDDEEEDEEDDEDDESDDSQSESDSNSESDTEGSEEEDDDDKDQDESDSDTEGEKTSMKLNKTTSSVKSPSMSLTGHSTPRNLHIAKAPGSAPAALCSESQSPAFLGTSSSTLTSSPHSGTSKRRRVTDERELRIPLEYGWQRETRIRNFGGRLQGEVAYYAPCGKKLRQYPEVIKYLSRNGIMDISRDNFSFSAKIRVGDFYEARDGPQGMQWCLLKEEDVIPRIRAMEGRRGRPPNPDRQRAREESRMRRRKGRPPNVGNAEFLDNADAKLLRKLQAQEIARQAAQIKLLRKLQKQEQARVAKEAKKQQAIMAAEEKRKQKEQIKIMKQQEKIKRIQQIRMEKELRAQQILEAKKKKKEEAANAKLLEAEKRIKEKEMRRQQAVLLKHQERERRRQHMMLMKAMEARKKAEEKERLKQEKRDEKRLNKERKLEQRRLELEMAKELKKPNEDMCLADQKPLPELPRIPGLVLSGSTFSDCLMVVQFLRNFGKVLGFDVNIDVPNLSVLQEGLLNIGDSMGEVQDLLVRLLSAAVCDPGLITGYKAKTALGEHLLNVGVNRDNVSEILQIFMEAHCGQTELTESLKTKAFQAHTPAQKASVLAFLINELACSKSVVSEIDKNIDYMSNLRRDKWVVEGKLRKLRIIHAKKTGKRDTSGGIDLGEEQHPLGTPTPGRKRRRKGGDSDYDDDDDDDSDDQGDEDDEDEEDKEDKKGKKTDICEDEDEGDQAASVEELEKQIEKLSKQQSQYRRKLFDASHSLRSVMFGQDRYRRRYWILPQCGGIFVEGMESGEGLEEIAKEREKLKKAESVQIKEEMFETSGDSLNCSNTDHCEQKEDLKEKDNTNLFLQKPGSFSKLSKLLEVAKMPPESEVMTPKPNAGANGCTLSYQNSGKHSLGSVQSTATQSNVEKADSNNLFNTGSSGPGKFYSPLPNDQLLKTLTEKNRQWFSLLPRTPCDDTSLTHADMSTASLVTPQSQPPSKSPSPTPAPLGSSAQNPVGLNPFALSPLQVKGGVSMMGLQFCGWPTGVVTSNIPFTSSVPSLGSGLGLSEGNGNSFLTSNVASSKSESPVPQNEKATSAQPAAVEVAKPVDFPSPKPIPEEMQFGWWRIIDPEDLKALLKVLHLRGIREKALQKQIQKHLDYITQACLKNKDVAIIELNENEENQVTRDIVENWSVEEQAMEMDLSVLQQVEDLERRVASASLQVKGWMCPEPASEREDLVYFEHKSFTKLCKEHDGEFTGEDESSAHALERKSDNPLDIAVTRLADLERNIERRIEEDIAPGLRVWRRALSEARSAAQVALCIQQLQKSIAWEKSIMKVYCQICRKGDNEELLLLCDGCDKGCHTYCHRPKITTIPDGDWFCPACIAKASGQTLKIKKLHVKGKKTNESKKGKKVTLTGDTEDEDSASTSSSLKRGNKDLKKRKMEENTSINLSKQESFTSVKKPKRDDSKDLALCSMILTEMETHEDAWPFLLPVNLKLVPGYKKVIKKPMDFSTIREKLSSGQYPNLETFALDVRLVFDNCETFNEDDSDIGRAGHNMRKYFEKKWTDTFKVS
row,Compound,Potency
1,Cc1ccc[n+](C(C)C(=O)Nc2ccc(C)c(C)c2)c1 (stereo unspecified),"inconclusive: 35.5 µM [inhibitor, single point]"
2,O=C1/C(=C\c2ccc(-c3ccccc3[N+](=O)[O-])o2)C(c2ccccc2)=NN1c1ccccc1,active: 6.31 µM
3,CC1CCN(S(=O)(=O)c2ccc3c(ccn3CC(=O)NCc3ccc(N(C)C)cc3)c2)CC1,"inconclusive: 28.2 µM [inhibitor, partial curve, poor fit]"
4,COC(=O)[C@@]1(Cc2ccc(F)cc2)[C@H]2c3cc(C(=O)N(C)C)n(CCSCCO)c3C[C@H]2CN1C(=O)c1ccccc1,"inconclusive: 70.8 µM [inhibitor, single point]"
5,O=C(Cn1cc(S(=O)(=O)N2CCN(c3ccccc3F)CC2)c2ccccc2c1=O)NCCCN1CCCCCC1,"inconclusive: 70.8 µM [inhibitor, single point]"
6,CCCC[C@@H](CNC)NC[C@H](Cc1ccc(O)cc1)NCCc1ccc(OCC)cc1,"inconclusive: 79.4 µM [inhibitor, single point]"
7,COc1cc(OC)cc(C(=O)NCCN2CCOCC2)c1,active: 50.1 µM
8,COc1ccc(S(=O)(=O)Cc2ccc(C(=O)N3CCN(c4cc(C)ccc4C)CC3)o2)cc1,"inconclusive: 39.8 µM [inhibitor, partial curve] and inconclusive: 20 µM [inhibitor, full curve]"
9,Cc1ccc(S(=O)(=O)N(Cc2n[nH]c(=S)n2-c2ccccc2)c2cccc(Cl)c2)cc1,"inconclusive: 89.1 µM [inhibitor, single point]"
10,Cc1ccc(S(=O)(=O)Nc2ccc3nc(-c4cccn4C)[nH]c3c2)cc1,active: 39.8 µM
11,O=c1c2ccccc2c(C=NCc2ccccn2)c(O)n1-c1ccccc1Cl,"inconclusive: 70.8 µM [inhibitor, partial curve]"
12,COc1cccc(-c2nc(CCl)cs2)c1OC,"inconclusive: 89.1 µM [inhibitor, single point]"
13,O=C(NCCCN1CCN(c2ccccc2F)CC1)C1COc2ccccc2C1 (stereo unspecified),"inconclusive: 44.7 µM [inhibitor, partial curve]"
14,CCCCN1C2=C(C(=O)CCC2)C(c2ccc(Cl)c(Cl)c2)C2=C1c1ccccc1C2=O (stereo unspecified),"inconclusive: 3.55 µM [inhibitor, full curve, poor fit]"
15,C=CCNCCCCOc1c(Cl)cc(C)cc1Br,"inconclusive: 89.1 µM [inhibitor, single point]"
16,O=C(O)CCC(=O)Nc1nc2nccc(-c3ccccc3)n2n1,"inconclusive: 79.4 µM [inhibitor, partial curve]"
